This sample is rich in variants without activity.
B1: TPR 5TU (parent)
chain: GGAUCUUCUCGAUCUAACAAAAAAGACAAAUCUGCCACAAAGCUUGAGAGCAUCUUCGGAUGCAGAGGCGGCAGCCUUCGGUGGCGCGAUAGCGCCAACGUUCUCAACUAUGACACGCAAAACGCGUGCUCCGUUGAAUGGAGUUUAUCAUG

Variants of: B1
Assay: polymerase ribozyme fitness, log enrichment relative to wild type (log ratio); higher = more active; in vitro selection for triplet polymerase activity
In short: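 Each subunit of a heterodimeric triplet polymerase ribozyme was mutagenized into a library by PCR, transcribed, and subjected to one round of in vitro selection, run in triplicate. Libraries were annealed with a biotinylated primer, the partner subunit and triplets, incubated frozen at −7 °C, and extended constructs were gel-excised, captured on streptavidin beads and recovered by RT-PCR. Input and output libraries were sequenced on Illumina, keeping genotypes with ≥10 input reads and ≥1 read per output. Fitness is log base 2 of genotype enrichment divided by wild-type enrichment, from inverse-variance-weighted replicate averages.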

Variant | polymerase ribozyme fitness (log ratio)
G50A U56G G80C C85A C114A G133A G140U | ≤ -4.2
A52G G62C C79G A89U G94C U104G | ≤ -4.2
A52C C76G G92U | ≤ -4.2
C51U C95A A98U C116G | 0.822
G50C A52C U77G C87A | ≤ -4.2
A52G G68U C99G | ≤ -4.2
G50U C99A | -1.59
A52G A73U G84A | -2.15
C51A U55A C93A U101C G112C | ≤ -4.2
A52G C54U A89U A91U C118U | ≤ -4.2
C51A G67C G92U C95A U144A | ≤ -4.2
G50U G68A G86A C96U C123G C129G | ≤ -4.2
G50C A52C G58C | ≤ -4.2
C51G C79A C149U | ≤ -4.2
A52G G88U U90G U145G | ≤ -4.2
C51U G88U U90C G94A C95U A147G | ≤ -4.2
A52C U56A C85G U104G U127A | ≤ -4.2
C51U G74U C75A | ≤ -4.2
A52G C87G A98C A122U U145C | ≤ -4.2
G50C G67A C87U U144C | ≤ -4.2
C51U G67C C85A G133U | ≤ -4.2

Variant | polymerase ribozyme fitness (log ratio)
G50A G70A | -3.76
G50C G83U C93A G100U G124C G128U C132G U145G | ≤ -4.2
C51A C85U A91U A120C A137G | ≤ -4.2
C51U C69G G92A C93U C116U U139G | ≤ -4.2
G50U C51U G58U C108G C123G | ≤ -4.2
G50U C125G | -0.442
G50C C95G U101G A115U C118G A122C G126U | ≤ -4.2
G50C A52U A73U G141A | ≤ -4.2
C51A C72U G92U G94A | ≤ -4.2
A52C C57A A73G C132G | ≤ -4.2
C51G A52G C72U G74U A98G C118U A119C G140C | ≤ -4.2
C51G C57U G67C C87G A91G | ≤ -4.2
G50C C129U | -3.94
A52G A150G | -2.55
A52C U78G G88U A113U A115U C118U A137C A150U | ≤ -4.2
A52C U78C G117C C149G | ≤ -4.2
A52C C87G G94U A97G A115C | ≤ -4.2
G50A C76G C93G U102A U135G A150G | ≤ -4.2
A52G U55A A91C A97U G112A A150U | ≤ -4.2
C51A C79U C93A U104A G140C | ≤ -4.2
A52G A66C G86C U127C | ≤ -4.2

Variant | polymerase ribozyme fitness (log ratio)
G50U C54U C93U U104G C116G A142U | ≤ -4.2
G50A G80A G88U C149A | ≤ -4.2
G50C A91U U144C C149U | ≤ -4.2
G50U U55A C85G G92A A115U | ≤ -4.2
C51G U148A | ≤ -4.2
C51G U148G | ≤ -4.2
A52G G58C C79U A98U U101G C108A | ≤ -4.2
C51U C69U C96G | -3.06
G50C A73G C96G C103U A137C | ≤ -4.2
G50C C51U A137G | ≤ -4.2
A52C G143C | -3.51
G50C A73G C87A | ≤ -4.2
A52C U55G G81A C87A C105G | ≤ -4.2
A52G G88A C118A C123U G141C | ≤ -4.2
C51G C87A C93G C105A A113U | ≤ -4.2
G50U U90G | ≤ -4.2
G50C C51A G71A G86U G100U A122G | ≤ -4.2
A52C G62C A120G G140U | -4.1
C51A U55G A60G C93U C108A | ≤ -4.2
A52C C54A | ≤ -4.2
C51A A52C A73G G83U U127C | ≤ -4.2

Variant | polymerase ribozyme fitness (log ratio)
G50C U134C | -2.51
G50A G84U | -1.58
A52G U53A G67U G81U C85U | ≤ -4.2
C51A G71C C75U C87U U102G A106U G136C | ≤ -4.2
A52C U55A U61A A98U C105U A106U | ≤ -4.2
A52C U53C A66G U82G C87G | ≤ -4.2
G50C C51G A121U U139G | ≤ -4.2
A52C C79A G81A G84U A110G G112C | ≤ -4.2
A52G C76A C96U A115G G117U | ≤ -4.2
A52C C54U G68A C93U C103A A106G A110U | ≤ -4.2
C51A U55G G58U C95A | -1.74
A52G G59C C87A U135A U148A | ≤ -4.2
G50A U53A A107U G141C | ≤ -4.2
G50U G59A A60G U77A G94U G140A | ≤ -4.2
G50A C87G G124A A142U C149A | ≤ -4.2
A52C U55G G58C G59A A66C | ≤ -4.2
G50C U82G G84U C103U A119U A120U | ≤ -4.2
A52C A60C C79U C93A G152U | ≤ -4.2
G50U G83U C85G | -4.13
A52G A60G A89G A113U C149G | ≤ -4.2
